The values below come from the antibiotic and cytotoxicity screens of Wong et al. (2023).

The other results are listed elsewhere or left out.

One experiment deals with HSkMC. Put plainly: cytotoxicity call (relative viability < 0.9). The following applies: 10 µM.
The test system of the next experiment is HepG2. Nature of the experiment: cytotoxicity call (relative viability < 0.9). The following applies: 10 µM.
The test system of the next experiment is S. aureus RN4220. Nature of the experiment: growth inhibition call (relative growth <= 0.2). The following applies: 50 µM.

Consider `C[C@@H]1CN([C@@H](C)CO)C(=O)c2cc(NS(=O)(=O)c3ccccc3)ccc2O[C@@H]1CN(C)S(=O)(=O)c1ccccc1`, for which the cytotoxicity call with HSkMC and in the experiment on HepG2 was “inactive” each time. The growth inhibition call in the experiment on S. aureus RN4220 is “inactive”.
As for `C[C@H](CO)N1C[C@H](C)[C@H](CN(C)Cc2ccc(Oc3ccccc3)cc2)Oc2c(NS(=O)(=O)c3cccs3)cccc2C1=O`, the cytotoxicity call in the experiment on HSkMC and in the experiment on HepG2 was “inactive” throughout. In addition, in the experiment with S. aureus RN4220, the growth inhibition call is “inactive”.
Turning to `C[N+](C)(C)CCO.[Cl-]`, the cytotoxicity call in the experiment on HSkMC and in the experiment with HepG2 was “inactive” each time. Moreover, the growth inhibition call with S. aureus RN4220 is “inactive”.
On to `N=C(N)NS(=O)(=O)c1ccc(N)cc1`, for which the cytotoxicity call with HSkMC and in the experiment with HepG2 was “inactive” in each case. In the experiment on S. aureus RN4220, the growth inhibition call is “inactive”.
`COC(=O)C[C@@H]1C[C@@H](C)[C@@H]2C(=O)c3c(O)c4c(c(O)c3C(=O)[C@@H]2[C@@H]1O)[C@H]1C[C@@H](O)[C@@]4(O)[C@@H](C)O1`: the cytotoxicity call with HSkMC was “inactive”. In the experiment on HepG2, the cytotoxicity call is “active”. The growth inhibition call in the experiment with S. aureus RN4220 was “inactive”.
On to `O=C1C(=O)C(O)C(=O)C(=O)C1O` (stereo not given), for which the cytotoxicity call in the experiment on HSkMC and in the experiment with HepG2 was “inactive” in each case. In the experiment with S. aureus RN4220, the growth inhibition call was “inactive”.
Take `C[C@@H]1CCCCO[C@H](CN(C)Cc2ccc(C(F)(F)F)cc2)[C@@H](C)CN([C@@H](C)CO)C(=O)c2cc(NC(=O)NC3CCCCC3)ccc2O1`: in the experiment with HSkMC, the cytotoxicity call was “inactive”. Also, in the experiment on HepG2, the cytotoxicity call was “active”. The growth inhibition call in the experiment with S. aureus RN4220 is “inactive”.
As for `COc1cccc(S(=O)(=O)N2[C@@H]3CC[C@@H](C3)[C@H]2c2nc3cccc(OCc4ccc(F)cc4)c3[nH]2)c1`, in the experiment on HSkMC, the cytotoxicity call was “inactive”. For the same compound, the cytotoxicity call in the experiment on HepG2 was “active”. The growth inhibition call in the experiment with S. aureus RN4220 was “inactive”.
For the compound `COc1ccc(S(=O)(=O)N(C)C[C@@H]2Oc3ccc(NC(=O)c4ccncc4)cc3CC(=O)N([C@H](C)CO)C[C@@H]2C)cc1`, the cytotoxicity call in the experiment on HSkMC (human skeletal muscle cells) and with HepG2 was “inactive” in each case. Further, the growth inhibition call with S. aureus RN4220 was “inactive”.
Regarding `Cc1ccccc1S(=O)(=O)N1C[C@@H](O)COC[C@H]2O[C@H](CC(=O)N3CCN(C)CC3)CC[C@@H]21`, the cytotoxicity call with HSkMC and with HepG2 was “inactive” throughout. Moreover, the growth inhibition call in the experiment on S. aureus RN4220 is “inactive”.
